26 compounds from patent publication US8592383B2, “Cycloalkyl-fused tetrahydroquinolines as CRTH2 receptor modulators” (Merck Sharp & Dohme Corp., priority 2011, dated 2013) can be followed below.

In general, Ki refers to the dissociation constant of the complex between target and ligand, obtained from inhibition or displacement. Low readings indicate tighter binding, high ones weaker binding.

For this assay, the target named is T1, hCRTH2 (Homo sapiens, UniProt Q9Y5Y4).
T1 sequence (Q9Y5Y4 1-395): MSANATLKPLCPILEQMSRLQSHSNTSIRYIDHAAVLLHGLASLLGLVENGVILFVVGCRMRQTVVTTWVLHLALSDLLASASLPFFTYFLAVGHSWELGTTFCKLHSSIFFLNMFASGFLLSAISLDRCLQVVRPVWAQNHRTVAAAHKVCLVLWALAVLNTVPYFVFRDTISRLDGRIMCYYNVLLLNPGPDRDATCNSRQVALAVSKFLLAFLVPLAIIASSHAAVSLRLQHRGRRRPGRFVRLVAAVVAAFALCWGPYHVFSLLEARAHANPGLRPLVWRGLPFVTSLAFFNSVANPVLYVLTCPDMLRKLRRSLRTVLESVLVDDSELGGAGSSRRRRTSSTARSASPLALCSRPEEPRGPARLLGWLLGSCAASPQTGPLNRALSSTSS
Nature of the assay: biochemical. As to conditions: Ki (nM), Table A; Radioligand Binding Assay A, [3H]PGD2, HEK-hCRTH2 membranes.
In turn, `O=C(O)CCC(=O)N(C1CC1)C1c2ccccc2N(C(=O)OCc2cccc3cccnc23)C2CCCC21` (single isomer, unassigned) [compound 79, (cis, cis)-4H-cyclopenta[b]quinoline-4-carboxylic acid, 9-[(3-carboxy-1-oxopropyl)cyclopropylamino]-1,2,3,3a,9,9a-hexahydro-, 4-(8-quinolinylmethyl) ester] gave a Ki of 20.1 to 200 nM.
In the case of `CCN(C(=O)CCC(=O)O)C1c2ccccc2N(C(=O)c2ccc(-c3ccccc3)cc2)C2CCC12` (single isomer, unassigned) [compound 80, 4-((cis, cis-3-(biphenylcarbonyl)-1,2,2a,3,8,8a-hcxahydrocyclobuta[b]quinolin-8-yl)(ethyl)amino)-4-oxobutanoic acid] it was 5.1 to 20 nM; in that of `CCN(C(=O)CCC(=O)O)C1c2ccccc2N(C(=O)c2cccs2)C2CCC12` (single isomer, unassigned) [compound 81, 4-(ethyl(cis, cis-3-(thiophene-2-carbonyl)-1,2,2a,3,8,8a-hexahydrocyclobuta[b]quinolin-8-yl)amino)-4-oxobutanoic acid], 1 to 5 nM; in that of `CCN(C(=O)CCC(=O)O)C1c2ccccc2N(C(=O)c2ccc(F)cc2)C2CCC12` (single isomer, unassigned) [compound 82, 4-(ethyl(cis, cis-3-(4-fluorobenzoyl)-1,2,2a,3,8,8a-hexahydrocyclobuta[b]quinolin-8-yl)amino)-4-oxobutanoic acid], 5.1 to 20 nM.
`CCN(C(=O)CCC(=O)O)C1c2ccccc2N(C(=O)c2ccc(SC(F)(F)F)cc2)C2CCC12` (single isomer, unassigned) [compound 83, 4-(ethyl(cis, cis-3-(4-(trifluoromethylthio)benzoyl)-1,2,2a,3,8,8a-hexahydrocyclobuta[b]quinolin-8-yl)amino)-4-oxobutanoic acid]: the Ki lay within 1 to 5 nM.
The compound `CCc1ccc(C(=O)N2c3ccccc3C(N(CC)C(=O)CCC(=O)O)C3CCC32)cc1` (single isomer, unassigned) [compound 84, 4-(ethyl(cis, cis-3-(4-ethylbenzoyl)-1,2,2a,3,8,8a-hexahydrocyclobuta[b]quinolin-8-yl)amino)-4-oxobutanoic acid] had a Ki of 5.1 to 20 nM.
In the case of `CCN(C(=O)CCC(=O)O)C1c2ccccc2N(C(=O)c2cc(F)cc(F)c2)C2CCC12` (single isomer, unassigned) [compound 85, 4-((cis, cis-3-(3,5-difluorobenzoyl)-1,2,2a,3,8,8a-hexahydrocyclobuta[b]quinolin-8-yl)(ethyl)amino)-4-oxobutanoic acid] it was 20.1 to 200 nM; in that of `CCN(C(=O)CCC(=O)O)C1c2ccccc2N(C(=O)c2cc(F)c(F)c(F)c2)C2CCC12` (single isomer, unassigned) [compound 86, 4-(ethyl(cis, cis-3-(3,4,5-trifluorobenzoyl)-1,2,2a,3,8,8a-hexahydrocyclobuta[b]quinolin-8-yl)amino)-4-oxobutanoic acid], 20.1 to 200 nM; in that of `CCN(C(=O)CCC(=O)O)C1c2ccccc2N(C(=O)c2ccc(F)c(C(F)(F)F)c2)C2CCC12` (single isomer, unassigned) [compound 87, 4-(ethyl(cis, cis-3-(4-fluoro-3-(trifluoromethyl)benzoyl)-1,2,2a,3,8,8a-hexahydrocyclobuta[b]quinolin-8-yl)amino)-4-oxobutanoic acid], 5.1 to 20 nM.
Consider `CCN(C(=O)CCC(=O)O)C1c2ccccc2N(C(=O)c2ccc(C(F)(F)F)cc2)C2CCC12` (single isomer, unassigned) [compound 88, 4-(ethyl(cis, cis-3-(4-(trifluoromethyl)benzoyl)-1,2,2a,3,8,8a-hexahydrocyclobuta[b]quinolin-8-yl)amino)-4-oxobutanoic acid], for which the inhibitory constant (Ki) was 5.1 to 20 nM.
The compound `CCN(C(=O)CCC(=O)O)C1c2ccccc2N(C(=O)OCc2ccc(F)cc2)C2CCC12` (single isomer, unassigned) [compound 89, 4-(ethyl(cis, cis-3-((4-fluorobenzyloxy)carbonyl)-1,2,2a,3,8,8a-hexahydrocyclobuta[b]quinolin-8-yl)amino)-4-oxobutanoic acid] had an inhibitory constant (Ki) of 20.1 to 200 nM.
`CCN(C(=O)CCC(=O)O)C1c2ccccc2N(C(=O)OCc2ccc(F)c(F)c2)C2CCC12` (single isomer, unassigned) [compound 90, 4-((cis, cis-3-((3,4-difluorobenzyloxy)carbonyl)-1,2,2a,3,8,8a-hexahydrocyclobuta[b]quinolin-8-yl)(ethyl)amino)-4-oxobutanoic acid] yielded a Ki of 20.1 to 200 nM.
The value for `CCN(C(=O)CCC(=O)O)C1c2ccccc2N(C(=O)OCc2ccc(C(F)(F)F)cc2)C2CCC12` (single isomer, unassigned) [compound 91, 4-(ethyl(cis, cis-3-((4-(trifluoromethyl)benzyloxy)carbonyl)-1,2,2a,3,8,8a-hexahydrocyclobuta[b]quinolin-8-yl)amino)-4-oxobutanoic acid] was 20.1 to 200 nM; that for `CCN(C(=O)CCC(=O)O)C1c2ccccc2N(C(=O)OCc2cccc(F)c2)C2CCC12` (single isomer, unassigned) [compound 92, 4-(ethyl(cis, cis-3-((3-fluorobenzyloxy)carbonyl)-1,2,2a,3,8,8a-hexahydrocyclobuta[b]quinolin-8-yl)amino)-4-oxobutanoic acid] was 20.1 to 200 nM.
In the case of `CCN(C(=O)CCC(=O)O)C1c2ccccc2N(C(=O)OCc2ccc(SC)cc2)C2CCC12` (single isomer, unassigned) [compound 93, 4-(ethyl(cis, cis-3-((4-(methylthio)benzyloxy)carbonyl)-1,2,2a,3,8,8a-hexahydrocyclobuta[b]quinolin-8-yl)amino)-4-oxobutanoic acid] it was 20.1 to 200 nM; in that of `CCN(C(=O)CCC(=O)O)C1c2ccccc2N(C(=O)OCc2ccc3occc3c2)C2CCC12` (single isomer, unassigned) [compound 94, 4-((cis, cis-3-((benzofuran-5-ylmethoxy)carbonyl)-1,2,2a,3,8,8a-hexahydrocyclobuta[b]quinolin-8-yl)(ethyl)amino)-4-oxobutanoic acid], 20.1 to 200 nM; in that of `CCN(C(=O)CCC(=O)O)C1c2ccccc2N(C(=O)c2ccc3c(c2)OCO3)C2CCC12` (single isomer, unassigned) [compound 95, 4-((cis, cis-3-(benzo[d][1,3]dioxole-5-carbonyl)-1,2,2a,3,8,8a-hexahydrocyclobuta[b]quinolin-8-yl)(ethyl)amino)-4-oxobutanoic acid], 20.1 to 200 nM.
In the case of `CCN(C(=O)CCC(=O)O)C1c2ccccc2N(C(=O)c2cccc3ccccc23)C2CCC12` (single isomer, unassigned) [compound 96, 4-((cis, cis-3-(1-naphthoyl)-1,2,2a,3,8,8a-hexahydrocyclobuta[b]quinolin-8-yl)(ethyl)amino)-4-oxobutanoic acid] it was 5.1 to 20 nM; in that of `CCN(C(=O)CCC(=O)O)C1c2ccccc2N(C(=O)c2ccc(F)cc2F)C2CCC12` (single isomer, unassigned) [compound 97, 4-((cis, cis-3-(2,4-difluorobenzoyl)-1,2,2a,3,8,8a-hexahydrocyclobuta[b]quinolin-8-yl)(ethyl)amino)-4-oxobutanoic acid], 20.1 to 200 nM.
With `O=C(O)CCC(=O)N(C1CC1)C1c2cc(-c3ccccc3)ccc2N(C(=O)OCc2ccccc2)C2CCC21` (single isomer, unassigned) [compound 99, 4-((cis, cis-3-(benzyloxycarbonyl)-6-phenyl-1,2,2a,3,8,8a-hexahydrocyclobuta[b]quinolin-8-yl)(cyclopropyl)amino)-4-oxobutanoic acid], the inhibition constant (Ki) lay within 201 to 7500 nM.
Compound `O=C(O)CCC(=O)N(C1CC1)C1c2cc(F)ccc2N(C(=O)OCc2ccc(C(F)(F)F)cc2)C2CCC21` (single isomer, unassigned) [compound 100, 3-[[4-(trifluoromethyl)phenyl]methyl] cis, cis-[(3-carboxy-1-oxopropyl)cyclopropylamino]-6-fluoro-2,2a,8,8a-tetrahydrocyclobuta[b] quinoline-3(1H)-carboxylate] gave an inhibitory constant (Ki) of 1 to 5 nM.
In the case of `C[C@H](OC(=O)N1c2ccc(F)cc2C(N(C(=O)CCC(=O)O)C2CC2)C2CCC21)c1ccccc1` (single isomer, unassigned) [compound 101] it was 201 to 7500 nM; in that of `O=C(O)CCC(=O)N(C1CC1)C1c2cc(F)ccc2N(C(=O)OCc2cccc(F)c2)C2CCC21` (single isomer, unassigned) [compound 102, 3-[(3-fluorophenyl)methyl] cis, cis-[(3-carboxy-1-oxopropyl)cyclopropylamino]-6-fluoro-2,2a,8,8a-tetrahydrocyclobuta[b] quinoline-3(1H)-carboxylate], 201 to 7500 nM; in that of `O=C(O)CCC(=O)N(C1CC1)[C@@H]1c2cc(Cl)ccc2N(C(=O)OCc2ccccc2)[C@@H]2CC[C@@H]21` (single isomer, unassigned) [compound 107, 4-((cis, cis-3-(benzyloxycarbonyl)-6-chloro-1,2,2a,3,8,8a-hexahydrocyclobuta[b]quinolin-8-yl)(cyclopropyl)amino)-4-oxobutanoic acid], 5.1 to 20 nM.
`O=C(O)CCCN(C1CC1)[C@@H]1c2cc(Cl)ccc2N(C(=O)OCc2ccccc2)[C@@H]2CC[C@@H]21` (single isomer, unassigned) [compound 108, 4-((cis, cis-3-(benzyloxycarbonyl)-6-chloro-1,2,2a,3,8,8a-hexahydrocyclobuta[b]quinolin-8-yl)(cyclopropyl)amino) butanoic acid] came in with a Ki of 5.1 to 20 nM.
In the case of `CCN(C(=O)[C@H](C)CC(=O)O)C1c2ccccc2N(C(=O)OCc2ccccc2)C2CCC12` (single isomer, unassigned) [compound 109] it was 20.1 to 200 nM.
